Data reported in the supplement of paper PMC12217912.
The list shows a part of the results. The full chains were built here from the parent and the listed change. Values near 0.05 are background.

B1: TEV protease; numbered along this chain (parent)
chain: MGESLFKGPRDYNPISSSICHLTNESDGHTTSLYGIGFGPFIITNKHLFRRNNGTLVVQSLHGVFKVKDTTTLQQHLVDGRDMIIIRMPKDFPPFPQKLKFREPQREERICLVTTNFQTKSMSSMVSDTSCTFPSGDGIFWKHWIQTKDGQCGSPLVSTRDGFIVGIHSASNFTNTNNYFTSVPKNFMELLTNQEAQQWVSGWRLNADSVLWGGHKVFMVKPEEPFQPVKEATQL

Variants of: B1
Test: raw area under fraction-flipped curve 0-4 h after induction (AUC4h, not background-subtracted), DNA-recorder readout of cleavage of the substrate (dimensionless); higher = more cleavage of the substrate by the protease variant
Conditions: temperature: 34 °C; time window: 0-4 h after rhamnose induction
Experimental: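 In vivo DNA recorder in E. coli TOP10(DE3) ΔrhaA at 34 °C. Each TEVp single-site mutant (parent TEVp 0) is paired with a single-site variant of the 7-mer TEVs (canonical ENLYFQ|S). The substrate sits between flexible linkers in a Bxb1-sfGFP-TEVs-SsrA fusion, so cleavage stabilises Bxb1 and speeds flipping of a recombination array, read by NGS. The value is the raw area under the fraction-flipped curve over 0-4 h after rhamnose induction (AUC4h), with ≥20 reads per time point. It is not background-subtracted; inactive controls average about 0.047.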
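Also: Bxb1 expression induced with 0.2% (w/v) L-rhamnose at OD600 near 0.5, cultures sampled hourly, flipped fraction per protease–substrate barcode pair counted by paired-end Illumina sequencing.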

Row | Variant | area with substrate ECLYFQS | area with substrate EELYFQS | area with substrate EGLYFQS | area with substrate EILYFQS | area with substrate EKLYFQS | area with substrate ELLYFQS | area with substrate EMLYFQS | area with substrate EPLYFQS | area with substrate EQLYFQS | area with substrate ERLYFQS | area with substrate ESLYFQS | area with substrate ETLYFQS | area with substrate EVLYFQS | area with substrate EWLYFQS | area with substrate EYLYFQS | area with substrate EDLYFQS | area with substrate EHLYFQS | area with substrate EFLYFQS
1 | L22V | 0.0949 | 0.108 | 0.0798 | 0.0808 | 0.0789 | 0.0888 | 0.113 | 0.0901 | 0.122 | 0.107 | 0.101 | 0.115 | 0.0907 | 0.0755 | 0.0992 | – | – | –
2 | P94I | 0.113 | – | 0.0961 | – | 0.089 | 0.109 | 0.168 | 0.0724 | – | – | 0.0933 | – | 0.0954 | 0.083 | 0.0744 | 0.135 | – | –
3 | W199H | 0.0485 | – | – | 0.0728 | – | – | – | 0.0506 | – | 0.0625 | 0.0626 | – | 0.058 | 0.0594 | 0.0606 | – | – | –
4 | Q227I | 0.115 | 0.121 | – | 0.0896 | 0.0787 | – | 0.107 | 0.122 | 0.0967 | 0.0911 | 0.122 | – | 0.113 | – | – | – | 0.114 | –
5 | I145D | 0.0514 | 0.126 | 0.0641 | 0.0572 | 0.0523 | 0.049 | 0.0557 | – | 0.0581 | 0.0738 | 0.0652 | 0.0648 | 0.0692 | 0.0499 | 0.0632 | 0.0434 | 0.0574 | –
6 | K46P | 0.0641 | 0.077 | – | 0.0552 | 0.0622 | 0.0655 | – | 0.057 | 0.102 | 0.0649 | 0.0645 | 0.0687 | 0.0565 | 0.0654 | 0.0637 | 0.0758 | 0.0848 | –
7 | F133N | 0.13 | 0.123 | 0.11 | – | 0.113 | 0.102 | 0.091 | – | 0.111 | 0.129 | 0.106 | – | 0.0856 | 0.135 | 0.0901 | – | – | 0.114
8 | L205W | 0.0848 | – | – | – | – | 0.0706 | – | 0.0999 | – | 0.0681 | 0.0539 | 0.0846 | 0.0902 | 0.0828 | – | 0.121 | – | 0.114
9 | C111L | 0.108 | 0.137 | – | 0.106 | – | 0.116 | 0.109 | – | 0.113 | 0.0389 | 0.112 | – | 0.143 | 0.0863 | 0.064 | – | 0.104 | 0.0998
10 | D91P | 0.105 | – | – | – | – | – | 0.16 | – | 0.116 | 0.146 | 0.0975 | – | 0.0904 | – | – | – | 0.109 | 0.14
11 | H47N | 0.0535 | 0.0441 | 0.0475 | 0.0521 | – | 0.0628 | 0.0488 | 0.0606 | 0.0576 | 0.0446 | 0.0635 | 0.0789 | 0.0506 | – | 0.0563 | – | 0.0616 | –
12 | E224F | 0.108 | 0.113 | 0.0879 | – | 0.11 | 0.0734 | 0.106 | – | – | – | 0.0777 | 0.0768 | – | 0.0959 | – | – | 0.0894 | –
13 | V57W | 0.104 | 0.115 | 0.0875 | 0.109 | 0.12 | 0.106 | – | – | 0.128 | 0.0861 | 0.0979 | 0.107 | 0.0975 | 0.0849 | 0.0326 | – | – | 0.108
14 | I167T | 0.0781 | 0.105 | 0.0545 | 0.0627 | 0.0577 | 0.0528 | 0.0786 | 0.0715 | 0.0676 | 0.0643 | 0.0724 | – | 0.0603 | 0.0658 | 0.0645 | 0.0828 | 0.0811 | 0.0494
15 | F163R | 0.107 | 0.105 | 0.106 | – | 0.0898 | – | 0.129 | – | – | 0.124 | 0.134 | – | 0.0986 | 0.0862 | 0.12 | – | 0.116 | –
16 | P225I | 0.0581 | 0.0921 | – | 0.102 | 0.107 | – | – | 0.125 | 0.105 | 0.0078 | 0.105 | 0.112 | 0.0782 | – | – | 0.121 | – | –
17 | E25P | 0.0616 | – | 0.0546 | 0.0721 | 0.0734 | 0.0739 | 0.0613 | – | 0.0781 | 0.0629 | 0.0629 | 0.0502 | – | 0.055 | 0.0679 | 0.069 | – | 0.0666
18 | T70S | 0.113 | – | – | 0.0984 | 0.0954 | 0.0851 | – | – | 0.107 | 0.114 | 0.094 | – | 0.109 | 0.0975 | – | 0.102 | 0.1 | –
19 | W203Y | 0.092 | 0.118 | – | 0.0753 | 0.0938 | 0.0906 | – | 0.0931 | 0.0945 | 0.0674 | 0.0891 | – | 0.0709 | 0.11 | – | 0.0993 | 0.0986 | –
20 | S18K | 0.0942 | 0.0984 | 0.0799 | – | 0.0543 | – | 0.11 | – | 0.105 | – | 0.101 | 0.11 | 0.0847 | – | 0.114 | – | – | –
21 | F38P | 0.0452 | 0.0508 | 0.0376 | 0.0452 | 0.0384 | 0.0393 | – | 0.0418 | 0.0344 | 0.0459 | 0.0373 | 0.0384 | – | 0.0499 | 0.0289 | – | 0.0301 | –
22 | C152S | 0.0684 | – | – | 0.0602 | – | – | – | – | 0.0851 | 0.0708 | 0.056 | 0.075 | 0.0857 | 0.0932 | – | 0.0919 | 0.0636 | –
23 | S123M | 0.122 | – | 0.0881 | – | 0.105 | – | – | 0.0914 | 0.133 | 0.0913 | 0.117 | – | 0.115 | 0.102 | 0.121 | – | – | 0.109
24 | S123A | 0.12 | 0.048 | 0.0966 | 0.102 | 0.11 | – | 0.0764 | – | 0.129 | 0.109 | 0.104 | 0.153 | 0.102 | 0.0628 | 0.104 | 0.158 | – | 0.0808
25 | P155S | 0.054 | – | 0.0932 | 0.0601 | 0.0869 | 0.0635 | 0.0584 | 0.0726 | 0.0599 | 0.0679 | 0.0659 | – | 0.0576 | 0.0837 | – | 0.068 | 0.0347 | –
26 | S26F | 0.0811 | 0.0977 | – | 0.0815 | 0.0789 | 0.088 | 0.0894 | – | 0.0844 | 0.0891 | 0.0685 | 0.0834 | 0.0773 | – | 0.123 | 0.1 | – | –
27 | R102T | 0.0492 | 0.0484 | – | 0.0599 | – | 0.0314 | 0.0628 | 0.0469 | 0.0536 | 0.0608 | 0.0556 | – | 0.0535 | – | 0.0537 | 0.0451 | – | 0.0539
28 | G28C | 0.0755 | 0.102 | 0.0778 | 0.0793 | 0.106 | 0.0715 | 0.0928 | – | 0.103 | – | 0.0844 | – | 0.081 | 0.0667 | 0.122 | 0.0663 | 0.0985 | –
